The source gives no read counts; variants with many changes may rest on few reads.
B1: LINE1-mini (parent)
chain: GGCAGAGCUCAACACAGCGUGGCAAAGUGGCUGUGGCUAGACUGCC

Variants of: B1
Experiment: self-cleavage, relative activity (ratio to wild type); higher = more cleavage; in vitro, sequencing; the parent is a self-cleaving ribozyme

Variant | self-cleavage
A6U C10A G30U U32C U34A G36U | 0.01
G2U C3A U28C C31A | 0.21
A4C A14G A24G C37A | 0.02
A6U G7C G29U U38C | 0.08
G7C G19C A26U C46A | 0.01
A14G G21U C42U | 0.17
C18A C37U G40U | 0.03
C8G G22A U32A | 0.01
A11U C31G A39C C45U | 0.03
C13U G21A A26C | 0.69
G7A G19C G35U | 0.06
G2U A11G C13A | 0.03
G17C G33U C37G A39U | 0.06
A11U A26G G35U G36A | 0.01
G7A C13G G40U | 0.02
G22C A24U G27C | 0.74
A39U G40C C42U C46U | 0.01
C3U G5A G7C C23G A24G | 0.08
G1C G7A C13G U38C C42G | 0.2
A12U G29U A39G C45G | 0.03
C8G A26G G35A | 0.09
G5A C31U G36C U43C | 0.01
C15U A24U U43G | 0.03
A24C A25C C46A | 0.52

Variant | self-cleavage
G2C A6C U28A C31A | 0.03
G5U A14G G22A A25U U32C A39U | 0.02
A14U A41C G44U | 0.37
G30A U38A C46A | 0.17
A4C G30U U38A | 0.02
C8A C18A G27U | 0.23
G21A G22A C23A U43G | 0
G27U G33A G36A | 0.05
G5C A16G G27A G36A | 0.01
A16G G21U C31U U32A A41G | 0
U9C G19A U20A G21C A25C U28C A39U | 0.02
G35C C42U U43G | 0.04
C3U C15U U43A | 0.02
G7A A25G U38C | 0.01
G5U C10A U38A | 0.12
C8G G21U G22A | 0.1
G2C A4U C15A G17U | 0.05
A4G C8U A12U G22U | 0.78
C10U A26U A41C G44A | 0.02
G5C G7A G44U C46G | 0.16
A6U A24C U34G C37A | 0.06
G17A U20G C31U A41U | 0.11
G1A C31G G40U | 0.05
A24G A26U C31U | 0.1

Variant | self-cleavage
C18G U28G G44C C45G | 0.04
C13A U20C G35A | 0.06
G1U C3G U9G C23A C45A | 0.07
G19A U20C U34A | 0.28
G7U C13G U20A G30U U32A G36U | 0.03
C10U C15G G21C U43C | 0
G7C G21U A25G | 0.04
C13A C31G C37U | 0.06
G2A U20G G36A | 0.19
G1U G5U G22A C23G G30C | 0.02
A24C C42G G44U C45A | 0.02
A14C A16U A24U | 0.04
C18G U20A G40U U43A | 0.04
G2U C10G A26C C31A | 0.01
G17U G21C G30C | 0.21
A11G C15G G17C U20C C42U | 0
C10A C15G C23U G33A | 0.03
G7C C15A G19C G27U U38C | 0.59
G7A C15U G17A A24C G29U C45A | 0.02
C15G A16C C18G A26G G33C C37U | 0.01
U9A U20G A39C G44C | 0.02
C10A A11C C37U | 0.01
G7A A26C U34C | 0.06
C10G A14G U34G | 0.15

Variant | self-cleavage
A4G G35U A41G | 0.59
C23G U32A G33U | 0.01
C13U G30C U32A C37A | 0.03
C13A G36U C46U | 0.35
G17C U28A G44C | 0.06
C23A G27C U34C | 0.39
G19C A39U G44A | 0.06
U9C C15A C18G | 0.02
G5U A6G G21C G22C G36A U43C G44C | 0.09
G2U A6G U9C C10U C13U G30A C42A | 0.04
A12G G22A G27C U28G | 0.02
A11U C15U G35A | 0.03
G22A G35U U43C C45U | 0
G5U A16C U38C | 0.03
C13A G17A C18G G27C | 0.03
C3U C8U U38A | 0.22
G5A G29A U43A | 0.07
C15U U20C A24C G44U C45U | 0.03
G5C C10G A39U C45A | 0.02
U20A G29U A39G | 0.06
G5A G40A C45G | 0.01
A16G U20C A26G G30A | 0.15
A4C C13U U28C | 0.19
A6U C18A C37U G40C | 0.01

Variant | self-cleavage
C13U U20A G22A C23U C31A C37U | 0.01
G27U U28C G29A | 1.01
C3A C13U A14C G17U | 0.08
G2A A26C U34C C46U | 0.33
G7A A16G G17C G29U G36A C42A | 0.19
A6G C8U G22C U38G G44A | 0.03
C8U A16C G21C A41U | 0.09
G2C C3U U20G A25C | 0.03
U9A G21U G27U C37G G40U | 0.01
A11C A24G A25C G30A C37A A39C | 0.01
C31A C37A A39G G40A A41C C42U U43G G44C C46A | 0.02
G2U G5C C10U | 0.01
G1A G5C A6G | 0.16
A12G C23G C37U G40A | 0.04
C18A G27C C31A G33A C42A | 0.01
A14G G17A G30C U34A G44C | 0.06
G5A U9A U28G G33C A41G G44U | 0.25
G2C U20C G30A | 0.12
C15A A16G C18U U28C G29A C31U U34C G35U G40A | 0.03
C8A G19U C46G | 0.15
G2A A26U G27U | 0.34
A11U G29A C31U G44C C46G | 0
G7C U9G A16C C31A C45G | 0.14
G1U C10G A14U C23G G30C U43G | 0

Variant | self-cleavage
C10G G27U G36U U38C G44C | 0
C8A A12U G29U A41C | 0.56
C8A A16U A24G U32G G40U | 0.01
C3A U9G C15U G22U A25U U43A | 0.08
G2A A6G A11G C18G U28A U32A G35A C46U | 0
G1A U9A A11G | 0.11
G7U C15U U28A C37U G44U | 0.08
A26G C31U G44U | 0.02
A25U G36A C37U | 0.04
C18A G29C G35U | 0.07
C10G G35U C45G | 0.03
C3G C8A C15A U28A | 0.13
A12U A24G C45U | 0.24
G2U G21U G35A G40U | 0.03
G1U A6G A12G C37U | 0.01
A11U A24G C42A | 0.03
C8G G36U U38C | 0.01
C3G G5U C18A | 0.14
C18G G19A G21U | 0.97
G5A C13A C15A C31A C42U | 0.06
G5C G19U G44U | 0.01
C15A A16G G21C A26C A39C | 0
C18U C23U U38A A39C C45U | 0.84
C10U G22U G30C C31A U43A | 0.01

Variant | self-cleavage
A11G A25U U32C | 0.01
C8G C10A G44C | 0
A24C U38G A41U | 0.02
G2U G17U A24U G35U C45U | 0.01
C8U U28G U32C G35U C37G U38A | 0.06
C10U A16G C18U | 0.09
A12U G30A C46U | 0.25
G5U U9A A12U A25U U34A C37U | 0.01
A16G G36U C46A | 0.04
C8G C15A C46U | 0.02
G7C U28A A39C G44A | 0.23
U9A G27U U32C | 0.09
G21C G29A C42U | 0.41
A14G A26C C31A | 0.06
G7A U34A G44C | 0.05
G17A U20G A26U | 0.09
A4U G19A U20G | 0.05
A6G G7U C15A G44U | 0.07
A6U G29U G30U C31U G44C | 0.08
A4U C13U G27C U43C C45U | 0.12
C3A U9C A12U A16G | 0.04
G1C C8G G21A G35A | 0.03
G2A A6C U38C | 0.37

From the RNAGym collection of RNA variant scans (doi:10.7554/elife.90254)
